Source: PubChem BioAssay AID686978 (National Center for Advancing Translational Sciences (NCATS), 2013)
The whole screen tested about 420,000 compounds, of which about 64,000 (15%) were called active. Inconclusive means that the source gave no clear call. Such entries were picked first, then a sample of the others. The call rests on the fitted dose curve; in most records, active means well fitted inhibition curve with a large enough effect; inconclusive means small, poorly fitted or top-dose-only effect; inactive means flat fitted curve, though single readings scatter. Potencies of inconclusive entries are left out as doubtful fits.

Experiment: qHTS for Inhibitors of human tyrosyl-DNA phosphodiesterase 1 (TDP1): qHTS in cells in absence of CPT; further: nearly all actives have a fitted effect of over 55% in size
Conditions: DT40 Tdp1-/- hTDP1 cells, no CPT, ATP luminescence, 48 h; activity change, negative = growth inhibition: at 46.2 µM (top of the series)
In short: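 Chicken DT40 Tdp1-/- cells complemented with human TDP1, screened without camptothecin (DMSO vehicle only), 400 cells/well. Compounds pin-transferred, cells incubated at 37 °C for at least 48 hr. Growth read as ATP-dependent luminescence (CellTiter-Glo, 30 min at RT).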
On the % scale 0 is the no-effect control and ±100 the full control effect; potency means the concentration at half of the fitted maximal effect; tags describe the fitted curve by direction and shape.

Question: For `COc1cc(CN(C(=S)NCC(=O)NC2CCCC2)C2CCCC2)cc(OC)c1OC`, which Potency is on record?
Answer: The Potency was inconclusive [inhibitor, single point].

Question: Which Potency does the source give for `Cc1ccccc1/C(N)=N/O` here?
Answer: Its Potency is “inactive”.

Question: Which Potency does the source give for `COc1ccc(C(=O)N2c3ccccc3C=CC2C#N)cc1` (configuration not stated) here?
Answer: Its Potency is inconclusive [inhibitor, single point].

Question: With `Cc1nn(-c2ccccc2)c2sc(C(=O)c3c(N)n(C)c(=O)n(C)c3=O)cc12` as the molecule, how does the Potency read?
Answer: Its Potency is inconclusive [inhibitor, partial curve, poor fit].

Question: Which Potency does the source give for `COc1ccc2c3c(cccc13)C(=O)CC2` here?
Answer: Its Potency is active: 20.6 µM.

Question: Which Potency does the source give for `COc1cccc(NC(=O)CN(C)C(=O)C23CC4CC(CC(Cl)(C4)C2)C3)c1` here?
Answer: The Potency was inconclusive [inhibitor, single point].

Question: With `CC(C)(C)c1cc(Br)c(O)c(N=Nc2ccc(S(=O)(=O)N3CCOCC3)cc2)c1` as the molecule, how does the Potency read?
Answer: Its Potency is inconclusive [inhibitor, partial curve].

Question: Which Potency does the source give for `COc1ccc(C2OC(=O)CC2C(=O)N2CCN(c3cc(Cl)ccc3C)CC2)cc1OC` (configuration not stated) here?
Answer: Its Potency is inconclusive [inhibitor, single point].

Question: Which Potency does the source give for `CCN(CC)C(=O)c1nc[nH]c1C(=O)N(CC)CC` here?
Answer: Its Potency is “inactive”.

Question: With `COc1ccc(OC[C@@H](O)CNC(=O)c2cccc3c2C(=O)c2ccc(-c4ccc(F)cc4OCc4ccccc4)cc2S3(=O)=O)cc1` as the molecule, how does the Potency read?
Answer: Its Potency is active: 10.3 µM.

Question: Which Potency does the source give for `CC(O)(c1cccc(F)c1)c1nc(-c2csc3ccccc23)cs1` (configuration not stated) here?
Answer: The Potency was inconclusive [inhibitor, single point].

Question: With `FC(F)(F)c1cccc(-c2nnc(-c3ccccc3)c(N3CCOCC3)n2)c1` as the molecule, how does the Potency read?
Answer: Its Potency is active: 16.4 µM.

Question: For `CCN1C(c2ccccc2)C(C)C(=O)C(C)C1c1ccccc1` (configuration not stated), which Potency is on record?
Answer: Its Potency is inconclusive [inhibitor, single point].

Question: With `CCOc1cc(CNC(C)(C)CO)cc(Br)c1OCc1ccc(Cl)cc1Cl` as the molecule, how does the Potency read?
Answer: The Potency was active: 20.6 µM.

Question: For `COc1ccc(C(C)NC(=S)NCc2ccc(F)cc2)cc1` (configuration not stated), which Potency is on record?
Answer: The Potency was inconclusive [inhibitor, single point].

Question: For `Cc1ccccc1NC(=S)N1CCN(Cc2ccc3c(c2)OCO3)CC1`, which Potency is on record?
Answer: The Potency was inconclusive [inhibitor, single point].

Question: With `COc1ccc(Cl)cc1-n1c(CCC(=O)O)ccc1-c1ccc(C)cc1` as the molecule, how does the Potency read?
Answer: The Potency was inconclusive [inhibitor, single point].

Question: With `Cc1noc(C)c1CSc1nnc(-c2ccccc2F)n1CCc1ccccc1` as the molecule, how does the Potency read?
Answer: Its Potency is inconclusive [inhibitor, single point].

Question: Which Potency does the source give for `COCCn1c(SCC(=O)Nc2cc(C(C)(C)C)nn2-c2ccccc2)nnc1-c1ccncc1` here?
Answer: Its Potency is inconclusive [inhibitor, partial curve].

Question: For `CCCCCCCCCCCCCC(=O)NO`, which Potency is on record?
Answer: The Potency was inconclusive [inhibitor, single point].

Question: With `Cc1c(NC(=O)CSc2nnc(N)s2)c(=O)n(-c2ccccc2)n1C` as the molecule, how does the Potency read?
Answer: The Potency was “inactive”.

Question: Which activity change, negative = growth inhibition does the source give for `CCN1CCN(CC(=O)c2c[nH]c3ccc(C)cc23)CC1` here?
Answer: Its activity change, negative = growth inhibition is inconclusive: -35.3% [inhibitor].

Question: With `COc1ccc(C(C(=O)NC2CCCCC2)N(C(=O)Cc2c[nH]c3ccccc23)c2ccccc2C)cc1OC` (configuration not stated) as the molecule, how does the Potency read?
Answer: The Potency was active: 20.6 µM.

Question: Which Potency does the source give for `CCOC(=O)[C@]12CCC=C1N(Cc1ccc3c(c1)OCO3)C(=O)[C@H](CC(=O)NCc1cccc(C(F)(F)F)c1)C2` here?
Answer: The Potency was active: 23.1 µM.

Question: For `CCN(CC(=O)NCc1ccc(Cl)cc1)C(=O)CCOc1ccccc1C`, which Potency is on record?
Answer: Its Potency is inconclusive [inhibitor, single point].

Question: With `CCOC(=O)c1cnc2nc(SCc3ccccc3Cl)[nH]n2c1=O` as the molecule, how does the Potency read?
Answer: The Potency was “inactive”.

Question: With `COc1ccc(CCNC(=O)c2ccccc2C(=O)NCCc2ccc(OC)cc2)cc1` as the molecule, how does the Potency read?
Answer: Its Potency is “inactive”.

Question: With `COc1ccc(NC(=O)c2oc3ccccc3c2NC(=O)Cc2ccc(F)cc2)c(OC)c1` as the molecule, how does the Potency read?
Answer: Its Potency is active: 8.2 µM.

Question: For `C=CCOc1nc2c(c(=O)n(C)c(=O)n2C)n1Cc1c(Cl)cccc1Cl`, which Potency is on record?
Answer: Its Potency is active: 20.6 µM.

Question: Which Potency does the source give for `CCOC(=O)C(CC)Sc1nnc(COc2ccc(C)cc2)n1-c1ccccc1` (configuration not stated) here?
Answer: Its Potency is inconclusive [inhibitor, single point].

Question: For `CCOc1ccc2oc(-c3ccccc3)c(C(=O)N3CCN(CCO)CC3)c2c1`, which Potency is on record?
Answer: Its Potency is inconclusive [inhibitor, partial curve].

Question: For `CC1CCN(S(=O)(=O)c2ccc3c(c2)N(CC(=O)Nc2ccc(F)c(Cl)c2)C(=O)CO3)CC1`, which Potency is on record?
Answer: The Potency was active: 14.6 µM.

Question: Which Potency does the source give for `O=C(Nc1ccccc1)N1CCCN(Cc2ccccc2F)C1` here?
Answer: Its Potency is inconclusive [inhibitor, single point].

Question: Which activity change, negative = growth inhibition does the source give for `C=CCC1(O)CC(c2ccco2)NC(c2ccco2)C1CCC` (configuration not stated) here?
Answer: Its activity change, negative = growth inhibition is inconclusive: -34.8% [inhibitor].

Question: Which Potency does the source give for `C=CCn1ccc(=O)nc1SC` here?
Answer: The Potency was “inactive”.

Question: Which Potency does the source give for `Clc1ccc(Cn2ncc3c(N4CCCCC4)ncnc32)c(Cl)c1` here?
Answer: The Potency was active: 11.6 µM.

Question: With `COc1ccc(NC(=O)CN(C)C(=O)c2ccc3c(c2)CC(c2ccccc2)OC3=O)cc1` (configuration not stated) as the molecule, how does the Potency read?
Answer: Its Potency is active: 16.4 µM.

Question: For `O=S(Cc1cc(Sc2ccccc2)nc(-c2ccccc2)n1)c1ccccc1` (configuration not stated), which Potency is on record?
Answer: The Potency was active: 16.4 µM.

Question: Which Potency does the source give for `COc1ccc2cc(/C=N/NC(=O)c3ccc(CN(c4ccc(C)c(C)c4)S(C)(=O)=O)cc3)c(Cl)nc2c1` here?
Answer: Its Potency is inconclusive [inhibitor, single point].

Question: For `O=C(Nc1cc(Cl)ccc1C(=O)O)c1ccc(CN2C(=O)c3ccccc3C2=O)cc1`, which Potency is on record?
Answer: Its Potency is “inactive”.

Question: With `N#CCSc1ccccc1NC(=O)COc1ccc(-c2nnco2)cc1` as the molecule, how does the Potency read?
Answer: The Potency was inconclusive [inhibitor, partial curve].

Question: For `COCC(=O)Nc1cc(C(=O)N2CCN(c3ccc(Cl)cn3)CC2)c2c(c1)nc(C1CCC1)n2C`, which Potency is on record?
Answer: Its Potency is “inactive”.

Question: Which Potency does the source give for `O=C(Cc1ccc(Cl)cc1)NO` here?
Answer: The Potency was inconclusive [inhibitor, single point].

Question: For `NC(=O)NC(=O)COC(=O)CNS(=O)(=O)c1ccc(F)c(F)c1F`, which Potency is on record?
Answer: Its Potency is “inactive”.

Question: With `COc1ccc(Br)cc1CNC(=O)CCSCc1ccc(Cl)cc1` as the molecule, how does the Potency read?
Answer: The Potency was active: 25.9 µM.

Question: For `COc1cc(C(=O)OC(C)C(=O)NCC2CCCCC2)cc(NC(=O)c2ccco2)c1OC` (configuration not stated), which Potency is on record?
Answer: The Potency was active: 20.6 µM.

Question: Which Potency does the source give for `CCN(Cc1ccc2c(c1)OCO2)C(=O)CSc1ncnc2sccc12` here?
Answer: Its Potency is inconclusive [inhibitor, single point].

Question: With `CN(C)c1ccc(-c2nnn(CC(=O)N3c4ccccc4CCc4ccccc43)n2)cc1` as the molecule, how does the Potency read?
Answer: Its Potency is active: 16.4 µM.

Question: For `CCNC(=O)C(CCSC)NS(=O)(=O)c1ccc(C)cc1` (configuration not stated), which Potency is on record?
Answer: The Potency was “inactive”.

Question: With `CN1CCN(C(=O)c2ccccc2-c2nc(-c3ccc(Cl)cc3)no2)CC1` as the molecule, how does the Potency read?
Answer: Its Potency is inconclusive [inhibitor, single point].

Question: Which Potency does the source give for `CCn1ccnc1CN1CCC(CO)(CCOc2ccccc2)CC1` here?
Answer: The Potency was “inactive”.

Question: For `CCN1CCN(c2cc(C)c3cc(NC(=O)c4cc(OC)cc(OC)c4)ccc3n2)CC1`, which Potency is on record?
Answer: Its Potency is active: 16.4 µM.

Question: With `Cc1ccc(OCCn2c(COc3ccc(Cl)cc3)nc3ccccc32)cc1` as the molecule, how does the Potency read?
Answer: Its Potency is inconclusive [inhibitor, single point].

Question: Which Potency does the source give for `C=C(C)CSc1nnc2n(C)c(=O)c3c4c(sc3n12)CCC4` here?
Answer: The Potency was inconclusive [inhibitor, single point].

Question: For `COc1ccc(-c2noc(-c3ccccc3C(=O)NCc3ccco3)n2)cc1OC`, which Potency is on record?
Answer: The Potency was active: 14.6 µM.

Question: Which Potency does the source give for `COCCCNC(=S)Nc1cc2oc3ccccc3c2cc1OC` here?
Answer: Its Potency is active: 6.51 µM.

Question: Which Potency does the source give for `CCc1ccccc1NC(=O)Cn1c(=O)ccc2cc(S(=O)(=O)N3CCC(C)CC3)ccc21` here?
Answer: Its Potency is inconclusive [inhibitor, partial curve].

Question: With `CCN(CC)C(=O)c1[nH]cnc1C(=O)N[C@@H](C)C(=O)OCc1ccccc1` as the molecule, how does the Potency read?
Answer: The Potency was active: 10.3 µM.

Question: With `CCCNC(=O)C(Cc1cccc(Cl)c1)NC(=O)c1ccc(C#N)cc1` (configuration not stated) as the molecule, how does the Potency read?
Answer: The Potency was inconclusive [inhibitor, single point].

Question: With `Cc1ccc(-n2ncc3c2CCCC3NC(=O)c2ccoc2)cc1C` (configuration not stated) as the molecule, how does the Potency read?
Answer: The Potency was inconclusive [inhibitor, single point].

Question: For `O=C1c2ccccc2C(c2nnnn2Cc2ccccc2)N1CCc1ccccc1F` (configuration not stated), which Potency is on record?
Answer: Its Potency is “inactive”.

Question: Which Potency does the source give for `N#CC12COC3(CCCCC3C1(C#N)C#N)OC2=N` (configuration not stated) here?
Answer: The Potency was active: 2.59 µM.

Question: Which Potency does the source give for `COc1ccccc1NC(=O)CN1CCN(C(=O)c2ccco2)CC1` here?
Answer: The Potency was inconclusive [inhibitor, full curve].

Question: For `CC1CCN(S(=O)(=O)c2ccc3[nH]c(=O)cc(C(=O)O)c3c2)CC1`, which Potency is on record?
Answer: Its Potency is “inactive”.

Question: With `COc1ccc(CN2CCN(C(=O)c3ccc(S(=O)(=O)N4CCCCCC4)cc3)CC2)cc1F` as the molecule, how does the Potency read?
Answer: The Potency was active: 20.6 µM.

Question: With `N#CC(c1ccccc1)C(CC(=O)c1ccccc1)c1ccccc1` (configuration not stated) as the molecule, how does the Potency read?
Answer: Its Potency is inconclusive [inhibitor, single point].

Question: For `CCN(CC)c1ccc(NC(=O)c2ccc(=O)[nH]c2)cc1S(=O)(=O)Nc1ccc(OC)cc1`, which Potency is on record?
Answer: Its Potency is inconclusive [inhibitor, partial curve, poor fit].

Question: With `COC(=O)[C@@H]1CCCN1Cc1ccc2c(c1)CN(Cc1coc3ccccc3c1=O)CCO2` as the molecule, how does the Potency read?
Answer: The Potency was “inactive”.

Question: For `O=C(CN(Cc1ccc(F)cc1)C(=O)c1csnn1)NCc1ccc2c(c1)OCO2`, which Potency is on record?
Answer: The Potency was inconclusive [inhibitor, partial curve, poor fit].

Question: Which Potency does the source give for `CCc1ccc(N=c2c([N+](=O)[O-])nn(-c3ccccc3)n2O)cc1` here?
Answer: Its Potency is inconclusive [inhibitor, partial curve].

Question: Which activity change, negative = growth inhibition does the source give for `O=C(NNC(=O)C12CC3CC(CC(C3)C1)C2)c1cccc(O)c1` here?
Answer: Its activity change, negative = growth inhibition is inconclusive: -31.2% [inhibitor].

Question: Which Potency does the source give for `CC(C)(C)C(=O)N1CCN(c2ccc([N+](=O)[O-])c(-n3nc(-c4ccccc4)c4ccccc4c3=O)c2)CC1` here?
Answer: The Potency was inconclusive [inhibitor, partial curve].
